# PubChem BioAssay AID1347044 (National Center for Advancing Translational Sciences (NCATS), 2019)
# The other results are listed elsewhere or left out. Further columns of the screen follow, without active or inactive calls. Compounds called inactive in the main read-out are mostly missing here. Words in brackets tell the shape of the fitted curve; partial curves, single points and poor fits give uncertain potencies.
# Test: Natriuretic polypeptide receptor (hNpr1) antagonism - Confirmation; further: nearly all actives have a fitted effect of over 70% in size
# Settings: HEK293 hNpr1 cGMP GloSensor luminescence, ANP-stimulated; measured here: HEK-hNpr1 cytotoxicity, CellTiter-Glo
# Method: In order to identify small molecular compounds that inhibit the hNpr1 receptor we developed a high-throughput assay to measure inhibition of the guanylate cyclase activity of the receptor. cGMP production was measured using a circular permutated Firefly luciferase (FLuc) enzyme functionally linked to the cGMP binding domain of human phosphodiesterase 5 (GloSensor technology pGS-40F, (Fan, F. et al. 2008). The cGMP-sensor was expressed in human embryonic kidney 293 (HEK-293) cells and FLuc activity was measured after stimulation with hNrp agonist peptide. hNrp agonists activates the receptor's associated guanylyl cyclase (GC) domain producing cGMP which then binds to the GloSensor resulting in FLuc activation, the enzymatic activity of which can be measured as bioluminescence with addition of luciferin substrate. A cytotoxicity counter-screen using the HEK-hNpr1-cGMP-sensor cells was also performed on the follow-up compounds. F. Fan, B. F. Binkowski, B. L. Butler, P. F. Stecha, M. K. Lewis, K. V. Wood, Novel genetically encoded biosensors using firefly luciferase. ACS Chem Biol 3, 346-351 (2008).
# PROTOCOL TABLES (as described by Inglese J, Shamu CE and Guy RK. 2007) SEQUENCE No. (e.g., 1, 2, 3, etc.); PARAMETER (e.g., Cells, Incubation, Reagent, etc.); VALUE and DESCRIPTION. GLOSENSOR PROTOCOL 1. Cells. Seed 1500 HEK293 cGMP-sensor cells expressing hNpr1 per well in 4uL into Greiner 1536-well white/solid bottom high base, tissue culture-treated plates. 2. Incubation. Incubate plated cells at 37C in 5% CO2, 95% RH overnight. 3. Reagent. Add 1uL per well GloSensor reagent from Promega (2% final concentration) or CO2 independent media vehicle control to respective columns of Greiner 1536-well plates. 4. Incubation. Incubate plated cells at room temperature for 2 h, protect from light. 5. Compounds. Library compounds and A-71915 control added at 23 nL per well, transferred by Pin Tool. 6. Incubation. Incubate plated cells for 30 min. at room temperature, protect from light. 7. Detector. GloSensor baseline pre-read luminescence measured using CCD-based camera (Viewlux). 8. Compound. Add 1uL of hNppA peptide to 0.1 nM final concentration to stimulate hNpr1 or CO2 independent media as vehicle control. 9. Incubation. Incubate treated cells at room temperature for 20 min., protect from light. 10. Detector. GloSensor post-hNppA luminescence measured using CCD-based camera (Viewlux). NOTES (numbers refer to Sequence numbers above) 1. HEK293 cells expressing hNpr1 and GIP/pGS-40F grown to 85-95% confluence (48-72 h) in T175 culture flasks (CO2 independent media supplemented with 10% FBS, 1% Pen/Strep antibiotics and 1 ug/mL puromycin). Trypsinize and harvest cells from T175 culture flasks and filter through 40 um cell strainer. Cells counted with Invitrogen Countess (30,000,000 - 50,000,000 cells/flask). Cells diluted to a final concentration of 375 cells/uL in CO2 independent media and a Millipore multidrop used to dispense 1500 cells per well (4uL/well) into 13 1536-well Greiner White/Solid bottom, high base tissue-culture treated (TC) plates and one Aurora 1536-well Black/Clear bottom, low base, TC plate (for visual inspection of cell health throughout the duration of the assay). 2. Cells incubated overnight at ambient temperature, 24 h. at 37C in 95% RH incubator protected from light, covered with metal lid with gas-exchange holes. 3. Prepare GloSensor Reagent (Promega): Reconstitute GloSensor luciferase substrate by adding 8.2mL Hepes buffer to 250mg substrate, mix well, protect from light and stored at -80C. Prepare a fresh 12% GloSensor solution in CO2 independent supplemented plating media (see above). Mix well and store at ambient temperature, protected from light. 1uL 12% GloSensor Luciferase Reagent added (2% final concentration) to respective columns of 13 x 1536-well Greiner plate with BioRaptr, 1uL CO2 independent plating media added to respective columns as vehicle control with BioRaptr. 4. […]
# Tags describe the fitted curve by direction and shape.
row,Structure (SMILES),CC50
1,COc1cc2c(cc1OCc1ccncc1)NC(=O)C21CCN(c2ncc(F)cn2)CC1,"39.6 µM [falling, partial curve]"
2,COc1cc2c(cc1OCc1ccccc1)NC(=O)C21CCN(c2ccccn2)CC1,"35.3 µM [falling, single point]"
3,CCn1nccc1C(=O)N1[C@H]2CC[C@@H]1c1cnc(-c3ccc(F)cc3)nc1C2,"13.7 µM [falling, full curve]"
4,Cn1cccc1C(=O)N1[C@H]2CC[C@@H]1c1cnc(-c3ccc(F)cc3)nc1C2,"9.68 µM [falling, partial curve]"
5,O=C(C1CCC1)N1[C@H]2CC[C@@H]1c1cnc(-c3ccc(F)cc3)nc1C2,"17.2 µM [falling, partial curve]"
6,COc1cc2c(cc1Oc1cccc(N(C)C)c1)NC(=O)C21CCN(Cc2ccccc2)CC1,"21.7 µM [falling, partial curve]"
7,Cc1cc(C(=O)N2[C@H]3CC[C@@H]2c2cnc(-c4ccc(F)cc4)nc2C3)n[nH]1,"30.6 µM [falling, single point]"
8,CCCS(=O)(=O)N1[C@H]2CC[C@@H]1c1cnc(-c3ccc(F)cc3)nc1C2,"21.7 µM [falling, partial curve]"
9,COc1cc2c(cc1Oc1cccc(N(C)C)c1)NC(=O)C21CCN(CCC(C)C)CC1,"22.2 µM [falling, partial curve]"
10,Cc1ccsc1C(=O)N1[C@H]2CC[C@@H]1c1cnc(-c3ccc(F)cc3)nc1C2,"12.2 µM [falling, partial curve]"
11,COCCn1c(C)cc(C(=O)N2[C@H]3CC[C@@H]2c2cnc(-c4ccc(F)cc4)nc2C3)c1C,"15.3 µM [falling, partial curve]"
12,COc1cc2c(cc1Oc1cccc(N(C)C)c1)NC(=O)C21CCN(Cc2ccccn2)CC1,"21.7 µM [falling, partial curve]"
13,Cc1cccc(OCC(=O)N2[C@H]3CC[C@@H]2c2cnc(-c4ccc(F)cc4)nc2C3)c1,"43.2 µM [falling, single point]"
14,O=C(C1CCCC1)N1[C@H]2CC[C@@H]1c1cnc(-c3ccc(F)cc3)nc1C2,"10.9 µM [falling, partial curve]"
15,O=C(C1CCCCC1)N1[C@H]2CC[C@@H]1c1cnc(-c3ccc(F)cc3)nc1C2,"15.3 µM [falling, partial curve]"
16,CC(C)C(=O)N1[C@H]2CC[C@@H]1c1cnc(-c3ccc(F)cc3)nc1C2,"15.3 µM [falling, partial curve]"
17,COc1ccc(CNC(=O)N2[C@H]3CC[C@@H]2c2cnc(-c4ccccc4)nc2C3)cc1,"17.2 µM [falling, partial curve]"
18,COc1cc2c(cc1Oc1cccc(N(C)C)c1)NC(=O)C21CCN(c2cnccn2)CC1,"24.3 µM [falling, partial curve]"
19,COc1cc2c(cc1Oc1ccccc1)NC(=O)C21CCN(Cc2cccc(O)c2)CC1,"35.3 µM [falling, partial curve]"
20,COc1cc2c(cc1Oc1ccccc1)NC(=O)C21CCN(c2cnccn2)CC1,"35.3 µM [falling, partial curve]"
21,O=C(c1ccsc1)N1[C@H]2CC[C@@H]1c1cnc(-c3ccc(F)cc3)nc1C2,"17.2 µM [falling, partial curve]"
22,CC(C)CC(=O)N1[C@H]2CC[C@@H]1c1cnc(-c3ccc(F)cc3)nc1C2,"15.3 µM [falling, partial curve]"
23,O=C(CC1CCCC1)N1[C@H]2CC[C@@H]1c1cnc(-c3ccccc3)nc1C2,"15.3 µM [falling, partial curve]"
24,COc1cc2c(cc1Oc1cccc(N(C)C)c1)NC(=O)C21CCN(Cc2cccc(O)c2)CC1,"19.3 µM [falling, partial curve]"
25,O=C1Nc2ccccc2C12CCN(Cc1ccc(C(F)(F)F)cc1)CC2,"24.3 µM [falling, partial curve]"
26,O=C(CC1CCCC1)N1[C@H]2CC[C@@H]1c1cnc(-c3ccc(F)cc3)nc1C2,"5.44 µM [falling, full curve]"
27,CCn1nccc1C(=O)N1[C@H]2CC[C@@H]1c1cnc(-c3ccccc3)nc1C2,"17.2 µM [falling, partial curve]"
28,COc1ccccc1C(=O)N1[C@H]2CC[C@@H]1c1cnc(-c3ccc(F)cc3)nc1C2,"10.9 µM [falling, partial curve]"
